The test system of the assay is E14Tg2a cells (mouse embryonic stem cells). In words: qPCR analysis of differentiation marker gene expression in embryoid bodies (EBs). The conditions noted are these: 0.5 μM AO1530 and/or 3 μM tBHP; for Gene Expression Relative to Control: Nox 1: 100 ng/ml Activin A treated EBs. On the technique in general: Quantitative PCR measures a nucleic acid by following its amplification.

[1] abbreviates: 100 ng/ml Activin A-treated EBs.
[2] abbreviates: Spontaneously differentiating EBs.

With `CC(C)(C)OO` [tBHP, tert-butyl hydroperoxide, reference compound], the “Gene Expression Relative to Control: Nox 1” value is given as “↑ (up to 10 fold up-regulation of gene expression)”. For the same compound, the “Nox 1 expression, fold change vs control” value under setting [1] is on record as approximately 7.5 fold. Moreover, where the note is “1 μM retinoic acid-treated EBs”, the “Cxcr 4 expression, fold change vs control” value is listed as approximately 3.8 fold; the “Foxa 2 expression, fold change vs control” value was approximately 2 fold; the “Nox 1 expression, fold change vs control” value was approximately 2.2 fold; the “Pax 6 expression, change vs control” value was “increased gene expression”. For the setting “1 μM retinoic acid-treated EBs”, the “Sox 1 expression, change vs control” value was “increased gene expression” and the “Sox 17 expression, fold change vs control” value is approximately 2.3 fold. Under setting [2], the “Brachyury expression, fold change vs control” value is “no apparent change in gene expression”; the “Foxa 2 expression, change vs control” value was “decreased”; the “Gene Expression Relative to Control: Sox 1” value is on record as “↑ (up to 10 fold up-regulation of gene expression)”; the “Sox 1 expression, fold change vs control” value is approximately 2.8 fold.
On to `CCCCCCCCCCc1ccc2c(=O)c(O)c(-c3cc(O)c(O)c(O)c3)oc2c1` [AO1530], for which the “Gene Expression Relative to Control: Nox 1” value was “↑ (up to 10 fold up-regulation of gene expression)”. In addition, under setting [1], the “Nox 1 expression, fold change vs control” value was approximately 4.6 fold. Also, where the note is “1 μM retinoic acid-treated EBs”, the “Brachyury expression, fold change vs control” value is listed as approximately 0.3 fold; the “Cxcr 4 expression, fold change vs control” value is listed as 2.3 fold; the “Foxa 2 expression, fold change vs control” value was “not observed”; the “Pax 6 expression, change vs control” value is “decrease in gene expression”. In addition, under “1 μM retinoic acid-treated EBs”, the “Sox 1 expression, change vs control” value is on record as “decrease in gene expression” and the “Sox 17 expression, fold change vs control” value is on record as “not observed”. Under setting [2], the “Brachyury expression, fold change vs control” value is on record as “no apparent change in gene expression”; the “Cxcr 4 expression, fold change vs control” value is given as approximately 1.4 fold; the “Gene Expression Relative to Control: Sox 17” value is “↑ (up to 10 fold up-regulation of gene expression)”; the “Sox 1 expression, fold change vs control” value is on record as “almost reduced to the base level”. In addition, under setting [2], the “Sox 17 expression, fold change vs control” value is given as approximately 1.4 fold.

The values above are taken from patent US20120094384A1, “USE OF COMPOUNDS FOR DIFFERENTIATION OF CELLS” (priority 2009, published 2012).
